The series deals with ATP. Put plainly: switch fluorescence ratio, 500 uM ATP over buffer (Cy3 cluster intensity, sum of 5 cycles each) (fold (ratio)); higher = stronger signal-on switching upon ATP binding; sequences stand for … in TCGTCGGCAGCGTCAGATGTGTATAAGAGACAGTTTTTTTTTTTTTTTTTTTTTTTTT…TC. As to conditions: aptamer strand: ATP DNA aptamer (quencher-CACCTGGGGGAGTATTGCGGAGGAAGG + anchor), 100 nM annealed; ATP concentration: 500 uM; one replicate. The method in brief:
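Values give the fluorescence ratio for each switch-domain sequence, averaged from per-cluster ratios of summed target-cycle to summed buffer-cycle Cy3 intensity. The Cy3-labelled switching-strand clusters sat on a modified Illumina MiSeq flow-cell, were annealed to 100 nM quencher-labelled ATP aptamer, and were imaged in selection buffer, then after 15 min with 500 uM ATP at 22 °C. Five cycles ran with NaOH stripping and re-annealing between them, and clusters outside 100-1000 RFU were excluded.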

Results on 67 sequences are retold here after the supplement of paper PMC10126150.

Sequences with one replicate were seen in a single cluster, so their values are uncertain.
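Further: ATP exposure 15 min at 22 °C before imaging.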

As to GGTACGACCG, the switch fluorescence ratio worked out at 1.01.

For ACTAACGTAG, the switch fluorescence ratio was found to be 1.1. For ACTGATTGGA, the switch fluorescence ratio worked out at 1.07.

As to CCAGATTTCA, the switch fluorescence ratio is 1.

For TTAGCCGGAA, the switch fluorescence ratio was 1.03. For GGTCTCGAGC, the switch fluorescence ratio is 1. Consider CAAAGCCATT, for which the switch fluorescence ratio amounted to 0.986.

Regarding CGAAACGCAC, the switch fluorescence ratio came to 1.73.

Consider CATGTCAGCT, for which the switch fluorescence ratio came out at 0.988.

As for TGATGTCATG, the switch fluorescence ratio stood at 0.988.

On to GTGAGGGGT, for which the switch fluorescence ratio amounted to 0.999.

GGCGGACTTG: the switch fluorescence ratio is 0.99.

GTCTCTCCTG: the switch fluorescence ratio came to 1.02.

As to CTTTTTAGAT, the switch fluorescence ratio came out at 1.01. Regarding CGTCTGCGTA, the switch fluorescence ratio was 1.05. Take GCCGGCGATG: the switch fluorescence ratio was found to be 1.02.

As to AAGAAGACTC, the switch fluorescence ratio was 1.09. For the sequence GATATAGT, the switch fluorescence ratio worked out at 1.02. AATAGCAACA: the switch fluorescence ratio amounted to 1.05.

For the sequence GAATAGAGAA, the switch fluorescence ratio is 1.

As for CAGCACAAT, the switch fluorescence ratio was determined as 1.11. The same measure for TGTATCGGCA: 0.973.

AGGGCGGAGG: the switch fluorescence ratio came out at 0.981. Consider ATGCTGCACC, for which the switch fluorescence ratio amounted to 1.05. Turning to TCAGGTCCAG, the switch fluorescence ratio is 1.02. For CGTTGTTTCA, the switch fluorescence ratio stood at 0.99.

In the case of GTAGCAGAGC, the switch fluorescence ratio was 1.05. With AACGGAATTG, the switch fluorescence ratio was determined as 1.07. Take GCTAATGCGG: the switch fluorescence ratio worked out at 0.989.

In the case of CAATGTTCAA, the switch fluorescence ratio came to 0.997. As to CCTGGACGAA, the switch fluorescence ratio was determined as 1.04. Regarding GCGACACTAG, the switch fluorescence ratio was 0.987.

Turning to GCTATGGCGC, the switch fluorescence ratio was 1.02. As to TACGGCCCCC, the switch fluorescence ratio is 1.04. The same measure for ATGATCGGAC: 1.03; for TAGAACTGCT: 1.03. In the case of CTCTTAACGG, the switch fluorescence ratio was 0.998. Take CGTTTTCACC: the switch fluorescence ratio is 1.03. As for GTAGCGAGTC, the switch fluorescence ratio is 1.23. On to CAATTTACTG, for which the switch fluorescence ratio stood at 1.01.

Take TCACACCGTC: the switch fluorescence ratio was determined as 1.06. Turning to GCATCTTGTT, the switch fluorescence ratio came to 0.944. With TCTATACGGA, the switch fluorescence ratio came out at 0.982.

As to TGGGTTAAGG, the switch fluorescence ratio amounted to 1.04.

With AGGGTTTCGC, the switch fluorescence ratio is 1.01. As for TCGATTATCA, the switch fluorescence ratio amounted to 1.02.

Take CGGGACCAG: the switch fluorescence ratio is 1.03.

On to GCGGTATTTA, for which the switch fluorescence ratio is 1.02. In the case of TTCCCGGAAC, the switch fluorescence ratio came out at 1.41. Regarding TCATCGGGCA, the switch fluorescence ratio came to 1.05.

As to AAAGTGGGTC, the switch fluorescence ratio stood at 1. Take TCCGTAGGGA: the switch fluorescence ratio is 1.01. The same measure for TGTTTCGTG: 0.957; for AAGAGCAAGA: 1.29; for ATGGACCGTC: 1.02. Turning to AAGGATTAGG, the switch fluorescence ratio was 0.947. Consider GTGACGAGTC, for which the switch fluorescence ratio amounted to 1. For ATCAATGCTA, the switch fluorescence ratio worked out at 1.03.

For the sequence CCACAGGGCC, the switch fluorescence ratio amounted to 1.19. In the case of AACCCGGTGT, the switch fluorescence ratio amounted to 1.17. As for CAACTAATTG, the figure is 0.98; as for ATGCGAACT, 1.

As to GCAAAGATT, the switch fluorescence ratio worked out at 0.98. As for CACTTGTGGG, the figure is 1.03; as for CATTTTGCAC, 1.75; as for CAGGCGCCTA, 1.01. Regarding TAGGGCTAAC, the switch fluorescence ratio turned out to be 1.05.
